# Laboratory results published in the supplement of paper PMC8728848.
# The list shows a part of the results.
# B1: Langerin CRD (Homo sapiens), Q9UJ71 (protein)
# chain: QVVSQGWKYFKGNFYYFSLIPKTWYSAEQFCVSRNSHLTSVTSESEQEFLYKTAGGLIYWIGLTKAGMEGDWSWVDDTPFNKVQSVRFWIPGEPNNAGNNEHCGNIKAPSLQAWNDAPCDKTFLFICKRPYVPSEPSAWSHPQFEK
# How the values were obtained:
# Test in all cases: glycan array binding signal (z-score within array); higher = stronger binding
# Conditions in all cases: glycan notation: IUPAC condensed, linker removed
# [1] = molecular target: Neu5Ac(a2-3)Gal(b1-4)[Fuc(a1-3)]GlcNAc
# Procedure, shortened: (§1)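 The Consortium for Functional Glycomics database supplied 3228 glycan arrays, of which those lacking an available protein sequence were dropped. The binding signal, a within-array Z-score, was averaged across arrays of the same protein sequence and across linkers. Negative scores can be read as non-binding.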
# [2] = molecular target: Neu5Ac(a2-3)Gal(b1-4)[Fuc(a1-3)]GlcNAc(b1-3)Gal
# Procedure, shortened: as §1
# [3] = molecular target: Neu5Ac(a2-3)Gal(b1-4)[Fuc(a1-3)]GlcNAc(b1-3)Gal(b1-4)GlcNAc
# Procedure, shortened: as §1
# [4] = molecular target: Neu5Ac(a2-3)Gal(b1-4)[Fuc(a1-3)]GlcNAc(b1-3)Gal(b1-4)[Fuc(a1-3)]GlcNAc(b1-3)Gal(b1-4)[Fuc(a1-3)]GlcNAc
# Procedure, shortened: as §1
# [5] = molecular target: Neu5Ac(a2-3)Gal(b1-4)[Fuc(a1-3)]GlcNAc(b1-6)[Gal(b1-3)]GalNAc
# Procedure, shortened: as §1
# [6] = molecular target: Neu5Ac(a2-3)Gal(b1-4)[Fuc(a1-3)]GlcNAc6S
# Procedure, shortened: as §1
# [7] = molecular target: Neu5Ac(a2-3)Gal6S(b1-4)GlcNAc
# Procedure, shortened: as §1
# [8] = molecular target: Neu5Ac(a2-3)Gal6S(b1-4)[Fuc(a1-3)]GlcNAc
# Procedure, shortened: as §1
# Neu5Ac(a2-3)GalNAc = molecular target: Neu5Ac(a2-3)GalNAc
# Procedure, shortened: as §1
# [9] = molecular target: Neu5Ac(a2-3)GalNAc(b1-4)GlcNAc
# Procedure, shortened: as §1
# [10] = molecular target: Neu5Ac(a2-3)[GalNAc(b1-4)]Gal(b1-4)Glc
# Procedure, shortened: as §1
# [11] = molecular target: Neu5Ac(a2-3)[GalNAc(b1-4)]Gal(b1-4)GlcNAc
# Procedure, shortened: as §1
# [12] = molecular target: Neu5Ac(a2-3)[Neu5Ac(a2-6)]GalNAc
# Procedure, shortened: as §1
# Neu5Ac(a2-6)Gal = molecular target: Neu5Ac(a2-6)Gal
# Procedure, shortened: as §1
# Neu5Ac(a2-6)Gal(b1-4)Glc = molecular target: Neu5Ac(a2-6)Gal(b1-4)Glc
# Procedure, shortened: as §1
# [13] = molecular target: Neu5Ac(a2-6)Gal(b1-4)GlcNAc
# Procedure, shortened: as §1
# [14] = molecular target: Neu5Ac(a2-6)Gal(b1-4)GlcNAc(b1-2)Man(a1-3)[Gal(b1-4)GlcNAc(b1-2)Man(a1-6)]Man(b1-4)GlcNAc(b1-4)GlcNAc
# Procedure, shortened: as §1
# [15] = molecular target: Neu5Ac(a2-6)Gal(b1-4)GlcNAc(b1-2)Man(a1-3)[GlcNAc(b1-2)Man(a1-6)]Man(b1-4)GlcNAc(b1-4)GlcNAc
# Procedure, shortened: as §1
# [16] = molecular target: Neu5Ac(a2-6)Gal(b1-4)GlcNAc(b1-2)Man(a1-3)[GlcNAc(b1-2)Man(b1-4)GlcNAc(b1-2)Man(a1-6)]Man(b1-4)GlcNAc(b1-4)GlcNAc
# Procedure, shortened: as §1
# [17] = molecular target: Neu5Ac(a2-6)Gal(b1-4)GlcNAc(b1-2)Man(a1-3)[Neu5Ac(a2-6)Gal(b1-4)GlcNAc(b1-2)Man(a1-6)]Man(b1-4)GlcNAc(b1-4)GlcNAc
# Procedure, shortened: as §1
# [18] = molecular target: Neu5Ac(a2-6)Gal(b1-4)GlcNAc(b1-2)Man(a1-6)[Gal(b1-4)GlcNAc(b1-2)Man(a1-3)]Man(b1-4)GlcNAc(b1-4)GlcNAc
# Procedure, shortened: as §1
# [19] = molecular target: Neu5Ac(a2-6)Gal(b1-4)GlcNAc(b1-2)Man(a1-6)[GlcNAc(b1-2)Man(a1-3)]Man(b1-4)GlcNAc(b1-4)GlcNAc
# Procedure, shortened: as §1
# [20] = molecular target: Neu5Ac(a2-6)Gal(b1-4)GlcNAc(b1-3)Gal(b1-4)GlcNAc
# Procedure, shortened: as §1
# [21] = molecular target: Neu5Ac(a2-6)Gal(b1-4)GlcNAc(b1-3)Gal(b1-4)[Fuc(a1-3)]GlcNAc(b1-3)Gal(b1-4)[Fuc(a1-3)]GlcNAc
# Procedure, shortened: as §1
# [22] = molecular target: Neu5Ac(a2-6)Gal(b1-4)GlcNAc6S
# Procedure, shortened: as §1
# Neu5Ac(a2-6)GalNAc = molecular target: Neu5Ac(a2-6)GalNAc
# Procedure, shortened: as §1
# [23] = molecular target: Neu5Ac(a2-6)GalNAc(b1-4)GlcNAc
# Procedure, shortened: as §1
# Neu5Ac(a2-8)Neu5Ac = molecular target: Neu5Ac(a2-8)Neu5Ac
# Procedure, shortened: as §1
# [24] = molecular target: Neu5Ac(a2-8)Neu5Ac(a2-3)Gal(b1-4)Glc
# Procedure, shortened: as §1
# [25] = molecular target: Neu5Ac(a2-8)Neu5Ac(a2-3)[GalNAc(b1-4)]Gal(b1-4)Glc
# Procedure, shortened: as §1
# [26] = molecular target: Neu5Ac(a2-8)Neu5Ac(a2-8)Neu5Ac
# Procedure, shortened: as §1
# [27] = molecular target: Neu5Ac(a2-8)Neu5Ac(a2-8)Neu5Ac(a2-3)Gal(b1-4)Glc
# Procedure, shortened: as §1
# [28] = molecular target: Neu5Ac(a2-8)Neu5Ac(a2-8)Neu5Ac(a2-3)[GalNAc(b1-4)]Gal(b1-4)Glc
# Procedure, shortened: as §1
# [29] = molecular target: Neu5Ac(a2-8)Neu5Ac(a2-8)Neu5Ac(a2-8)Neu5Ac(a2-3)[GalNAc(b1-4)]Gal(b1-4)Glc
# Procedure, shortened: as §1
# [30] = molecular target: Neu5Ac(b2-6)Gal(b1-4)GlcNAc
# Procedure, shortened: as §1
# Neu5Ac(b2-6)GalNAc = molecular target: Neu5Ac(b2-6)GalNAc
# Procedure, shortened: as §1
# [31] = molecular target: Neu5Ac9Ac(a2-6)Gal(b1-4)GlcNAc
# Procedure, shortened: as §1
# [32] = molecular target: Neu5Gc(a2-3)Gal(b1-3)GlcNAc
# Procedure, shortened: as §1
# [33] = molecular target: Neu5Gc(a2-3)Gal(b1-3)[Fuc(a1-4)]GlcNAc
# Procedure, shortened: as §1
# Neu5Gc(a2-3)Gal(b1-4)Glc = molecular target: Neu5Gc(a2-3)Gal(b1-4)Glc
# Procedure, shortened: as §1
# [34] = molecular target: Neu5Gc(a2-3)Gal(b1-4)GlcNAc
# Procedure, shortened: as §1
# [35] = molecular target: Neu5Gc(a2-3)Gal(b1-4)[Fuc(a1-3)]GlcNAc
# Procedure, shortened: as §1
# [36] = molecular target: Neu5Gc(a2-6)Gal(b1-4)GlcNAc
# Procedure, shortened: as §1
# Neu5Gc(a2-6)GalNAc = molecular target: Neu5Gc(a2-6)GalNAc
# Procedure, shortened: as §1
# [37] = molecular target: Neu5Gc(b2-6)Gal(b1-4)GlcNAc
# Procedure, shortened: as §1
binder,measurement,setting,value
B1,glycan array binding signal (z-score),[1],-0.583
same,glycan array binding signal (z-score),[2],-0.389
same,glycan array binding signal (z-score),[3],-0.537
same,glycan array binding signal (z-score),[4],-0.339
same,glycan array binding signal (z-score),[5],-0.665
same,glycan array binding signal (z-score),[6],-0.222
same,glycan array binding signal (z-score),[7],0.146
same,glycan array binding signal (z-score),[8],0.345
same,glycan array binding signal (z-score),Neu5Ac(a2-3)GalNAc,-0.485
same,glycan array binding signal (z-score),[9],-0.602
same,glycan array binding signal (z-score),[10],-0.557
same,glycan array binding signal (z-score),[11],-0.565
same,glycan array binding signal (z-score),[12],-0.541
same,glycan array binding signal (z-score),Neu5Ac(a2-6)Gal,-0.522
same,glycan array binding signal (z-score),Neu5Ac(a2-6)Gal(b1-4)Glc,-0.592
same,glycan array binding signal (z-score),[13],-0.505
same,glycan array binding signal (z-score),[14],-0.603
same,glycan array binding signal (z-score),[15],-0.263
same,glycan array binding signal (z-score),[16],-0.65
same,glycan array binding signal (z-score),[17],-0.61
same,glycan array binding signal (z-score),[18],-0.59
same,glycan array binding signal (z-score),[19],-0.342
same,glycan array binding signal (z-score),[20],-0.554
same,glycan array binding signal (z-score),[21],-0.586
same,glycan array binding signal (z-score),[22],-0.46
same,glycan array binding signal (z-score),Neu5Ac(a2-6)GalNAc,-0.619
same,glycan array binding signal (z-score),[23],-0.552
same,glycan array binding signal (z-score),Neu5Ac(a2-8)Neu5Ac,-0.544
same,glycan array binding signal (z-score),[24],-0.565
same,glycan array binding signal (z-score),[25],-0.637
same,glycan array binding signal (z-score),[26],-0.593
same,glycan array binding signal (z-score),[27],-0.636
same,glycan array binding signal (z-score),[28],-0.656
same,glycan array binding signal (z-score),[29],-0.732
same,glycan array binding signal (z-score),[30],-0.367
same,glycan array binding signal (z-score),Neu5Ac(b2-6)GalNAc,-0.529
same,glycan array binding signal (z-score),[31],-0.422
same,glycan array binding signal (z-score),[32],-0.539
same,glycan array binding signal (z-score),[33],-0.249
same,glycan array binding signal (z-score),Neu5Gc(a2-3)Gal(b1-4)Glc,-0.695
same,glycan array binding signal (z-score),[34],-0.566
same,glycan array binding signal (z-score),[35],-0.635
same,glycan array binding signal (z-score),[36],-0.51
same,glycan array binding signal (z-score),Neu5Gc(a2-6)GalNAc,-0.387
same,glycan array binding signal (z-score),[37],-0.263
